From ChEMBL document CHEMBL1201862, “PubChem BioAssay data set” (2004)
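Tested at 5 concentrations; 48 h exposure; 96-well plates; endpoints linearly interpolated, else capped at highest concentration. GI50 = concentration required for 50% inhibition of growth.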 The source made the active and inactive calls. Rule as the data show it: active = GI50 up to about 1.1 µM and inactive = higher.

Key:
Experiment in all cases: NCI anticancer screen, dose series, 48 h
[1] = test system: SR
[2] = test system: T47D
[3] = test system: HCT-15
[4] = test system: SK-MEL-5
[5] = test system: UACC-62
[6] = test system: IGROV-1
[7] = test system: SF-539
[8] = test system: COLO 205
[9] = test system: MDA-MB-231
[10] = test system: BT-549
[11] = test system: K562
[12] = test system: UO-31
[13] = test system: Malme-3M
[14] = test system: NCI-H23
[15] = test system: RXF 393
[16] = test system: DU-145
[17] = test system: SK-OV-3
[18] = test system: SK-MEL-28
[19] = test system: MOLT-4
[20] = test system: CAKI-1
[21] = test system: ACHN
[22] = test system: U-251
[23] = test system: UACC-257
[24] = test system: LOX IMVI
[25] = test system: SF-295
[26] = test system: SW-620
[27] = test system: Hs-578T
[28] = test system: EKVX
[29] = test system: M14
[30] = test system: KM12
[31] = test system: A498
[32] = test system: OVCAR-4
[33] = test system: CCRF-CEM
[34] = test system: SNB-75
[35] = test system: 786-0
[36] = test system: NCI-H522
[37] = test system: OVCAR-8
[38] = test system: SK-MEL-2
[39] = test system: MCF7
[40] = test system: HCC 2998
[41] = test system: NCI-H226
[42] = test system: SN12C
[43] = test system: HT-29
[44] = test system: OVCAR-3
[45] = test system: A549
[46] = test system: PC-3
[47] = test system: NCI/ADR-RES
[48] = test system: HOP-62
[49] = test system: HCT-116
[50] = test system: SF-268
[51] = test system: RPMI-8226
[52] = test system: OVCAR-5
[53] = test system: MDA-N
[54] = test system: NCI-H460
[55] = test system: TK-10
[56] = test system: SNB-19
[57] = test system: MDA-MB-435
[58] = test system: HL-60

Measured: GI50

COc1cc2c(cc1OC)-c1[nH]c3ccc(C(F)(F)F)cc3c1CC(=O)N2
4.02 µM: [3]
inactive: [1] 1.82 µM | [2] 5.78 µM | [4] 3.63 µM | [5] 15.5 µM | [6] 3.5 µM | [7] 4.05 µM | [8] 2.9 µM | [9] 7.91 µM | [10] 28.7 µM | [11] 2.46 µM | [12] 2.91 µM | [13] 13.1 µM | [14] 6.19 µM | [15] 1.66 µM | [16] 4.59 µM | [17] 11.1 µM | [18] 19.3 µM | [19] 2.16 µM | [20] 2.72 µM | [21] 3.44 µM | [22] 4.59 µM | [23] > 100 µM | [24] 2.74 µM | [25] 5.21 µM | [26] 19.8 µM | [27] 9.46 µM | [28] 15.5 µM | [29] 8.87 µM | [30] 3.26 µM | [31] 3.7 µM | [32] 12.9 µM | [33] 3.23 µM | [34] 4.81 µM | [35] 4.03 µM | [36] 9.14 µM | [37] 4.34 µM | [38] 5.52 µM | [39] 5.62 µM | [40] 2.39 µM | [41] 1.43 µM | [42] 9.89 µM | [43] 4.58 µM | [44] 2.52 µM | [45] 3.15 µM | [46] 5.79 µM | [47] 5.05 µM | [48] 5.56 µM | [49] 1.74 µM | [50] 5.47 µM | [51] 2.34 µM | [52] 5 µM | [53] 3.37 µM | [54] 4.45 µM | [55] 23.6 µM | [56] 24.7 µM | [57] 5.7 µM | [58] 2.59 µM
